# Data as given in the supplement of paper PMC8728848.
# The list shows a part of the results.
# Assays:
# Assay in all cases: glycan array binding signal (z-score within array); higher = stronger binding
# Conditions in all cases: glycan notation: IUPAC condensed, linker removed
# [1] = target: Neu5Ac(a2-3)Gal(b1-3)GalNAc(b1-3)Gal(a1-4)Gal(b1-4)Glc
# Procedure, shortened: (§1)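 Arrays were curated from the Consortium for Functional Glycomics database, 3228 in total, and kept only where the protein sequence was available. Binding is expressed as a within-array Z-score. This score was averaged across arrays of the same protein sequence at different concentrations or buffers and across linkers, and negative values can be read as non-binding.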
# [2] = target: Neu5Ac(a2-3)Gal(b1-3)GalNAc(b1-4)[Neu5Ac(a2-3)]Gal(b1-4)Glc
# Procedure, shortened: as §1
# [3] = target: Neu5Ac(a2-3)Gal(b1-3)GalNAc6S
# Procedure, shortened: as §1
# [4] = target: Neu5Ac(a2-3)Gal(b1-3)GlcNAc
# Procedure, shortened: as §1
# [5] = target: Neu5Ac(a2-3)Gal(b1-3)GlcNAc(b1-3)Gal(b1-4)GlcNAc
# Procedure, shortened: as §1
# [6] = target: Neu5Ac(a2-3)Gal(b1-3)GlcNAc6S
# Procedure, shortened: as §1
# [7] = target: Neu5Ac(a2-3)Gal(b1-3)[Fuc(a1-4)]GlcNAc
# Procedure, shortened: as §1
# [8] = target: Neu5Ac(a2-3)Gal(b1-3)[Fuc(a1-4)]GlcNAc(b1-3)Gal(b1-4)[Fuc(a1-3)]GlcNAc
# Procedure, shortened: as §1
# [9] = target: Neu5Ac(a2-3)Gal(b1-3)[Neu5Ac(a2-3)Gal(b1-4)]GlcNAc
# Procedure, shortened: as §1
# [10] = target: Neu5Ac(a2-3)Gal(b1-3)[Neu5Ac(a2-6)]GalNAc
# Procedure, shortened: as §1
# Neu5Ac(a2-3)Gal(b1-4)Glc = target: Neu5Ac(a2-3)Gal(b1-4)Glc
# Procedure, shortened: as §1
# [11] = target: Neu5Ac(a2-3)Gal(b1-4)GlcNAc
# Procedure, shortened: as §1
# [12] = target: Neu5Ac(a2-3)Gal(b1-4)GlcNAc(b1-3)Gal(b1-4)GlcNAc
# Procedure, shortened: as §1
# [13] = target: Neu5Ac(a2-3)Gal(b1-4)GlcNAc(b1-3)Gal(b1-4)GlcNAc(b1-3)Gal(b1-4)GlcNAc
# Procedure, shortened: as §1
# [14] = target: Neu5Ac(a2-3)Gal(b1-4)GlcNAc(b1-3)Gal(b1-4)[Fuc(a1-3)]GlcNAc
# Procedure, shortened: as §1
# [15] = target: Neu5Ac(a2-3)Gal(b1-4)GlcNAc6S
# Procedure, shortened: as §1
# [16] = target: Neu5Ac(a2-3)Gal(b1-4)[Fuc(a1-3)]GlcNAc
# Procedure, shortened: as §1
# [17] = target: Neu5Ac(a2-3)Gal(b1-4)[Fuc(a1-3)]GlcNAc(b1-3)Gal
# Procedure, shortened: as §1
# [18] = target: Neu5Ac(a2-3)Gal(b1-4)[Fuc(a1-3)]GlcNAc(b1-3)Gal(b1-4)GlcNAc
# Procedure, shortened: as §1
# [19] = target: Neu5Ac(a2-3)Gal(b1-4)[Fuc(a1-3)]GlcNAc(b1-3)Gal(b1-4)[Fuc(a1-3)]GlcNAc(b1-3)Gal(b1-4)[Fuc(a1-3)]GlcNAc
# Procedure, shortened: as §1
# [20] = target: Neu5Ac(a2-3)Gal(b1-4)[Fuc(a1-3)]GlcNAc6S
# Procedure, shortened: as §1
# [21] = target: Neu5Ac(a2-3)Gal6S(b1-4)GlcNAc
# Procedure, shortened: as §1
# [22] = target: Neu5Ac(a2-3)Gal6S(b1-4)[Fuc(a1-3)]GlcNAc
# Procedure, shortened: as §1
# Neu5Ac(a2-3)GalNAc = target: Neu5Ac(a2-3)GalNAc
# Procedure, shortened: as §1
# [23] = target: Neu5Ac(a2-3)GalNAc(b1-4)GlcNAc
# Procedure, shortened: as §1
# [24] = target: Neu5Ac(a2-3)[GalNAc(b1-4)]Gal(b1-4)Glc
# Procedure, shortened: as §1
# [25] = target: Neu5Ac(a2-3)[GalNAc(b1-4)]Gal(b1-4)GlcNAc
# Procedure, shortened: as §1
# [26] = target: Neu5Ac(a2-3)[Neu5Ac(a2-6)]GalNAc
# Procedure, shortened: as §1
# [27] = target: Neu5Ac(a2-6)Gal(b1-4)GlcNAc
# Procedure, shortened: as §1
# [28] = target: Neu5Ac(a2-6)Gal(b1-4)GlcNAc(b1-2)Man(a1-3)[Neu5Ac(a2-6)Gal(b1-4)GlcNAc(b1-2)Man(a1-6)]Man(b1-4)GlcNAc(b1-4)GlcNAc
# Procedure, shortened: as §1
# [29] = target: Neu5Ac(a2-6)Gal(b1-4)GlcNAc(b1-3)Gal(b1-4)GlcNAc
# Procedure, shortened: as §1
# [30] = target: Neu5Ac(a2-6)Gal(b1-4)GlcNAc(b1-3)Gal(b1-4)[Fuc(a1-3)]GlcNAc(b1-3)Gal(b1-4)[Fuc(a1-3)]GlcNAc
# Procedure, shortened: as §1
# [31] = target: Neu5Ac(a2-6)Gal(b1-4)GlcNAc6S
# Procedure, shortened: as §1
# Neu5Ac(a2-6)GalNAc = target: Neu5Ac(a2-6)GalNAc
# Procedure, shortened: as §1
# [32] = target: Neu5Ac(a2-6)GalNAc(b1-4)GlcNAc
# Procedure, shortened: as §1
# Neu5Ac(a2-8)Neu5Ac = target: Neu5Ac(a2-8)Neu5Ac
# Procedure, shortened: as §1
# [33] = target: Neu5Ac(a2-8)Neu5Ac(a2-3)Gal(b1-4)Glc
# Procedure, shortened: as §1
# [34] = target: Neu5Ac(a2-8)Neu5Ac(a2-3)[GalNAc(b1-4)]Gal(b1-4)Glc
# Procedure, shortened: as §1
# [35] = target: Neu5Ac(a2-8)Neu5Ac(a2-8)Neu5Ac
# Procedure, shortened: as §1
# [36] = target: Neu5Ac(a2-8)Neu5Ac(a2-8)Neu5Ac(a2-3)Gal(b1-4)Glc
# Procedure, shortened: as §1
# [37] = target: Neu5Ac(a2-8)Neu5Ac(a2-8)Neu5Ac(a2-3)[GalNAc(b1-4)]Gal(b1-4)Glc
# Procedure, shortened: as §1
# [38] = target: Neu5Ac(a2-8)Neu5Ac(a2-8)Neu5Ac(a2-8)Neu5Ac(a2-3)[GalNAc(b1-4)]Gal(b1-4)Glc
# Procedure, shortened: as §1
# [39] = target: Neu5Ac9Ac(a2-6)Gal(b1-4)GlcNAc
# Procedure, shortened: as §1
# [40] = target: Neu5Gc(a2-3)Gal(b1-3)GlcNAc
# Procedure, shortened: as §1
# [41] = target: Neu5Gc(a2-3)Gal(b1-3)[Fuc(a1-4)]GlcNAc
# Procedure, shortened: as §1
# Neu5Gc(a2-3)Gal(b1-4)Glc = target: Neu5Gc(a2-3)Gal(b1-4)Glc
# Procedure, shortened: as §1
# [42] = target: Neu5Gc(a2-3)Gal(b1-4)GlcNAc
# Procedure, shortened: as §1
# [43] = target: Neu5Gc(a2-3)Gal(b1-4)[Fuc(a1-4)]GlcNAc
# Procedure, shortened: as §1
# [44] = target: Neu5Gc(a2-6)Gal(b1-4)GlcNAc
# Procedure, shortened: as §1
# Neu5Gc(a2-6)GalNAc = target: Neu5Gc(a2-6)GalNAc
# Procedure, shortened: as §1
binder,measurement,setting,value
TbCVNHOb (Tuber borchii) (protein) GSHIGPYMSFYASSEDVRTIEEGGRTWLVGRARRADGSWQDIKLDLDNIIGNRDGHLTWGEQNFTQSASDIRFNFEGGSNVPVLRAKLRNAAGGEQESDLNLGERLTNNNGDLVFN,glycan array binding signal (z-score),[1],3.63
same,glycan array binding signal (z-score),[2],-0.148
same,glycan array binding signal (z-score),[3],-0.619
same,glycan array binding signal (z-score),[4],-0.491
same,glycan array binding signal (z-score),[5],-0.587
same,glycan array binding signal (z-score),[6],-0.045
same,glycan array binding signal (z-score),[7],-0.198
same,glycan array binding signal (z-score),[8],1.13
same,glycan array binding signal (z-score),[9],-0.625
same,glycan array binding signal (z-score),[10],-0.348
same,glycan array binding signal (z-score),Neu5Ac(a2-3)Gal(b1-4)Glc,0.864
same,glycan array binding signal (z-score),[11],-0.496
same,glycan array binding signal (z-score),[12],-0.329
same,glycan array binding signal (z-score),[13],-0.471
same,glycan array binding signal (z-score),[14],-0.251
same,glycan array binding signal (z-score),[15],-0.401
same,glycan array binding signal (z-score),[16],-0.457
same,glycan array binding signal (z-score),[17],-0.45
same,glycan array binding signal (z-score),[18],-0.387
same,glycan array binding signal (z-score),[19],-0.412
same,glycan array binding signal (z-score),[20],-0.607
same,glycan array binding signal (z-score),[21],-0.594
same,glycan array binding signal (z-score),[22],0.853
same,glycan array binding signal (z-score),Neu5Ac(a2-3)GalNAc,-0.569
same,glycan array binding signal (z-score),[23],-0.633
same,glycan array binding signal (z-score),[24],-0.549
same,glycan array binding signal (z-score),[25],-0.501
same,glycan array binding signal (z-score),[26],-0.604
same,glycan array binding signal (z-score),[27],-0.287
same,glycan array binding signal (z-score),[28],-0.528
same,glycan array binding signal (z-score),[29],-0.196
same,glycan array binding signal (z-score),[30],-0.484
same,glycan array binding signal (z-score),[31],-0.583
same,glycan array binding signal (z-score),Neu5Ac(a2-6)GalNAc,-0.341
same,glycan array binding signal (z-score),[32],-0.535
same,glycan array binding signal (z-score),Neu5Ac(a2-8)Neu5Ac,-0.335
same,glycan array binding signal (z-score),[33],-0.579
same,glycan array binding signal (z-score),[34],0.097
same,glycan array binding signal (z-score),[35],-0.121
same,glycan array binding signal (z-score),[36],-0.246
same,glycan array binding signal (z-score),[37],-0.405
same,glycan array binding signal (z-score),[38],-0.244
same,glycan array binding signal (z-score),[39],-0.495
same,glycan array binding signal (z-score),[40],-0.576
same,glycan array binding signal (z-score),[41],-0.276
same,glycan array binding signal (z-score),Neu5Gc(a2-3)Gal(b1-4)Glc,-0.42
same,glycan array binding signal (z-score),[42],-0.572
same,glycan array binding signal (z-score),[43],-0.228
same,glycan array binding signal (z-score),[44],-0.326
same,glycan array binding signal (z-score),Neu5Gc(a2-6)GalNAc,-0.435
